# Experimental data reported in PMC4336329 (PLoS ONE, 2015).
# Out of some 310,000 compounds screened, about 2,200 (0.71%) showed an effect of 50% or more. The effect is printed as a negative number. This is one part of the list.
# Target: human ether-à-go-go-related gene (hERG) potassium channel (human, UniProt Q12809)
# Experiment: primary screen, population patch clamp on CHO cells stably expressing hERG
# Sequence of human ether-à-go-go-related gene (hERG) potassium channel (Q12809 whole entry, looked up): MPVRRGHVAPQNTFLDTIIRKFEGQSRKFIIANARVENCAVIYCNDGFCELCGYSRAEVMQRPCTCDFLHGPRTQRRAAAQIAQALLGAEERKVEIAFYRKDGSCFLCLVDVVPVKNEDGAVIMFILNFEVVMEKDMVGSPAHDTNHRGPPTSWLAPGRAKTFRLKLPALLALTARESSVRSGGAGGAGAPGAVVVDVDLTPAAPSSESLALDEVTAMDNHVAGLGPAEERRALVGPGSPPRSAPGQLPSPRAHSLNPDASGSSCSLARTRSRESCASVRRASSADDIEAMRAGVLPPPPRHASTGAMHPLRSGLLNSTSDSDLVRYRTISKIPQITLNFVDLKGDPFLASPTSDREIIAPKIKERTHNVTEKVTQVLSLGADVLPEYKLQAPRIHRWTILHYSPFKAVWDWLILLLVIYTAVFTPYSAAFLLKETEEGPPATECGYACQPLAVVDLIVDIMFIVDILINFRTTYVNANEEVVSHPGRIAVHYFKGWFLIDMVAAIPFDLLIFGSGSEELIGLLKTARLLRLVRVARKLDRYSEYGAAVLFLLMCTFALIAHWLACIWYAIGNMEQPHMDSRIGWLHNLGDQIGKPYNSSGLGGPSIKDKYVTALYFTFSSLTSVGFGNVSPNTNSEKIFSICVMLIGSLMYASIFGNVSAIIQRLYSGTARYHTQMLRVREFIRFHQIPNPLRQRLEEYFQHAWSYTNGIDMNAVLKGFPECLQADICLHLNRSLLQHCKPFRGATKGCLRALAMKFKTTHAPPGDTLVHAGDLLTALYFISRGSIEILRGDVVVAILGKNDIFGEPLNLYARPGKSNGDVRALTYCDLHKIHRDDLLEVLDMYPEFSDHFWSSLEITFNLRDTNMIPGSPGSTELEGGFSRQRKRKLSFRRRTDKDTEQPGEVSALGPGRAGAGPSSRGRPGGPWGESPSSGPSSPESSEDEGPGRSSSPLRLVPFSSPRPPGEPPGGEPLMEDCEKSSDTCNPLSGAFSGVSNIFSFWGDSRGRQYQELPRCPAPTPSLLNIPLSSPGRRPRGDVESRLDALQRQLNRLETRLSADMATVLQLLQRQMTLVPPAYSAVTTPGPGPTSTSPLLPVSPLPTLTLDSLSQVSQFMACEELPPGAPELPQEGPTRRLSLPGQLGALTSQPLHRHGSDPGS
row,Structure (SMILES),"hERG current change (%, negative = inhibition) at 1uM"
1,CCN(CC)CCNc1nc(-c2ccc(OC)cc2)c(-c2ccc(OC)cc2)s1,-1.17%
2,O=[N+]([O-])c1ccc(COc2cccc3cccnc23)cc1,13.3%
3,COc1cc(C(C)=O)ccc1OCc1nnc(-c2ccccc2Br)o1,1.18%
4,CCN(Cc1ccc(OC)c(F)c1)C(=O)c1cc2ccccc2o1,9.54%
5,COC(=O)CCCCCN1C(=O)NC(C2CC2)C(C(=O)OCc2ccccc2)=C1C (stereo not drawn),9.64%
6,C/C(=N\NC(=O)c1cccc(S(=O)(=O)N2CCOCC2)c1)c1ccco1,1.87%
7,CCCC(=O)N(c1ccc2oc(C)c(C(C)=O)c2c1)S(=O)(=O)c1ccc(C)c([N+](=O)[O-])c1,1.26%
8,CC(=O)Nc1ccc(S(=O)(=O)NCCC(=O)OCC(=O)c2ccc(F)c(F)c2)cc1,12.4%
9,Cc1nc(N2CCOCC2)[nH]c(=O)c1[N+](=O)[O-],9.2%
10,Cc1cc(=O)n2[nH]c(N3C(=O)CCC3=O)nc2n1,9.01%
11,CCCCc1c(CCC)c(=N)c2ccccc2n1C.I,1.37%
12,Cc1ccc(N2C(=O)C(Cc3ccccc3)NC2=S)cc1 (stereo not drawn),-0.972%
13,Cc1c(NC(=O)COC(=O)c2ccccc2Cl)c(=O)n(-c2ccccc2)n1C,-0.103%
14,O=C(NNC(=O)C1CCCCC1)c1ccco1,27.6%
15,CC(C)(C)OC(=O)N1CCC(NC(=O)c2nc[nH]c2C(=O)N2CCc3ccccc3C2)CC1,3.96%
16,CC1C/C(=N\NC(=O)c2ccc([N+](=O)[O-])cc2)CC(C)(C)C1 (stereo not drawn),0.803%
17,COc1ccc(OC)c(S(=O)(=O)NCC(c2ccco2)N2CCc3ccccc32)c1 (stereo not drawn),-5.26%
18,N=C1/C(=C\c2ccc(Br)o2)C(=O)N=C2SC(CC(=O)N3CCOCC3)=NN12,38.4%
19,CC(C#N)On1c(SC(C)C#N)nc2ccccc2c1=O (stereo not drawn),0.0058%
20,O=C(Cn1cc(/C=N/NC(=O)c2cccc(C(F)(F)F)c2)c2ccccc21)Nc1ccc(F)cc1,13.7%
21,COc1c2ccoc2cc2oc(C)cc(=O)c12,8.22%
22,Cc1cccc2c(=O)c(-c3ccc4c(c3)OCO4)c(NC(=O)c3ccco3)oc12,9.32%

row,Structure (SMILES),"hERG current change (%, negative = inhibition) at 1uM"
1,O=C1CC(c2ccccc2)CC(=O)N1c1ccccc1,2.75%
2,COc1ccc(C(=O)N2CCOC2CNC(=O)C(=O)NCCc2ccccc2OC)cc1 (stereo not drawn),8.1%
3,CCC(CC)C(=O)NCCc1cc2ccc(C)cc2[nH]c1=O,9.51%
4,Cn1c(=O)n(C)c2cc(NS(=O)(=O)c3ccccc3[N+](=O)[O-])ccc21,4.27%
5,CC(C)(CO)CNC(=O)CCc1nnc(C2(c3ccc(Cl)cc3)CCC2)o1,11.8%
6,O=C(Nc1nccs1)c1ccc2c(c1)C(=O)N(Cc1cccnc1)C2=O,9.79%
7,CCCc1cc(=O)oc2cc(C)cc(OCC(=O)NC(Cc3c[nH]c4ccc(O)cc34)C(=O)O)c12 (stereo not drawn),13.8%
8,CC1CN(c2ccnc3cc(Cl)ccc23)CC(C)O1 (stereo not drawn),5.7%
9,Cc1nn(CCCC(=O)O)c(C)c1[N+](=O)[O-],12.5%
10,COC(=O)C1=C(c2c(C)noc2C)C[C@@H]2CC[C@H]1N2C(=O)NCCNC(C)=O,15.9%
11,CCCn1c(C2CCCN2c2nc(-c3ccc(C)cc3)cs2)nc2cc(Cl)c(N3CCCCC3)cc21 (stereo not drawn),16.9%
12,NC(=O)CSc1nc2c(sc3ccccc32)c(=O)n1CCCN1CCOCC1,-25%
13,Cc1ccccc1NC(=O)NC1(C(=O)N2CCN(C)CC2)CCCCC1,15.3%
14,Cc1nc(CCNC(=O)CC2C(=O)NCCN2Cc2ccccc2)nc2c1CCC2 (stereo not drawn),21.7%
15,O=C(NCC1CCCO1)c1ccc2c(c1)N(Cc1ccccc1)CCS2 (stereo not drawn),13%
16,Cn1c(Cc2ccccc2)nnc1SCC(=O)N1CCCCC1,7.77%
17,Cc1cccc(N2CCN(C(=O)C(Cc3ccccc3)n3cccc3)CC2)c1C (stereo not drawn),11.8%
18,O=C1Nc2ccccc2C1(O)Cc1ccccn1 (stereo not drawn),14%
19,O=C(CCCCCCN1C(=O)c2ccccc2C1=O)NC1CCCCC1,18.1%
20,C=CCn1c(O)c(C(CC)=NCc2cc(OC)cc(OC)c2)c(=O)[nH]c1=O,-5.67%
21,O=C(NCc1ccc(F)cc1)C(c1ccccc1)N(C(=O)c1csnn1)C1CC1 (stereo not drawn),18.9%
22,CCOC(=O)C1=C(C)N(c2ccc(OC)cc2)C(=O)/C1=C\c1ccc(O)c(OCC)c1,13.5%

row,Structure (SMILES),"hERG current change (%, negative = inhibition) at 1uM"
1,CCOC(=O)C1CCN(C(=O)COc2ccc(S(=O)(=O)N3CCOCC3)cc2)CC1,12.8%
2,CC(C(=O)O)N1C(=O)c2cccc3cccc1c23 (stereo not drawn),12%
3,CC(=O)c1c(C)[nH]c(C(=O)Nc2ccccc2Cl)c1C,-0.772%
4,Cc1cc(=O)n(C(C)(C)C)c(=O)n1Cc1ccccc1,8.56%
5,Cc1[nH]c(=S)c(C#N)c(C)c1Cc1ccccc1,11.7%
6,COc1cc(C(=O)NCCOc2cc(C)ccc2C(C)C)cc(OC)c1OC,11.2%
7,CC1CCN(CCNC(=O)CN(C)S(=O)(=O)c2cccc3nsnc23)CC1,3.12%
8,Cc1cc2c(nn1)CCC/C2=N\O,5.18%
9,O=C(O)CCCCCN1C(=O)C(O)=C(C(=O)/C=C/c2ccccc2)C1c1cccc([N+](=O)[O-])c1 (stereo not drawn),13.9%
10,O=C1CC(c2cccnc2)c2cc3c(cc2N1)OCCO3 (stereo not drawn),15.8%
11,Cc1ccc(C(C)C)cc1OCC(=O)NNC(=O)Nc1ccccc1,19.8%
12,COc1ccc(C)c(NC(=O)NCCc2cnc[nH]2)c1,8.46%
13,CCOC(=O)N1CCN(CCC(=O)Nc2cccc(C)c2)CC1.Cl,14.8%
14,CCc1cccc(CC)c1NC(=O)COC(=O)CC1c2ccccc2CCN1S(=O)(=O)c1ccccc1 (stereo not drawn),8.41%
15,COc1ccc(S(=O)(=O)N2CCN(C(=O)COc3ccccc3)CC2)cc1,1.96%
16,CCOC(=O)CN1C(=O)C(C)(C)Oc2ccc(C(=O)Nc3ccccc3OC)cc21,5.61%
17,CN(C)S(=O)(=O)c1cc(NC(=O)COC(=O)Cc2cccc3ccccc23)ccc1Cl,13.4%
18,COC(=O)c1nn(-c2ccccc2)c2nnc(Cc3ccc(C)cc3)c(=O)n12,7.99%
19,CCn1c(C)cc(/C=C2/NC(=O)N(c3ccccc3)C2=O)c1C,19.2%
20,O=C(NN=C1CCCCCCC1)c1ccc2ccccc2n1,3.15%
21,O=C(Nc1ccc(CN2CCOCC2)cc1)c1ccc(Cl)cc1Cl,10.5%
22,Cc1ccc(C(=O)C(OC(=O)c2c(C)cc(=O)oc2C)c2ccccc2)cc1 (stereo not drawn),19.8%

row,Structure (SMILES),"hERG current change (%, negative = inhibition) at 1uM"
1,CC1=C(C#N)C(NC(=O)c2cccc(Cl)c2)(C(F)(F)F)C(=O)N1 (stereo not drawn),9.35%
2,O=C(CCCCn1c(=S)[nH]c2ccsc2c1=O)NCc1ccc2c(c1)OCO2,11.9%
3,CC(=O)Nc1nc(SCc2ccc(Cl)cc2Cl)n[nH]1,8.12%
4,CCc1cccc(C)c1NC(=O)CN(C)C1=NS(=O)(=O)c2ccccc21,2.13%
5,C/C=C(\C)C(=O)NCCN1C2=NC[C@H](Cc3ccccc3)N2C[C@@H]1Cc1ccc(OC)cc1,-9.48%
6,COc1ccc(NC(=O)NCc2ccccn2)cc1OC,-3.55%
7,CC(C)N=C1CC(C)(C)CC(=O)/C1=C(/O)CCCN1C(=O)c2ccccc2C1=O,5.72%
8,CCOc1cccc(/C=C/c2cc(C(=O)O)c3ccccc3n2)c1OC,12.9%
9,COCCCNC(=S)N1CCC(NC(=O)Nc2ccc(C)cc2)CC1,9.17%
10,Cn1c(=O)c2sccc2n(Cc2ccc(Br)cc2)c1=O,15.3%
11,COc1cccc(N/C=C/C(=O)c2ccc(OC)c(OC)c2)c1,5.81%
12,COc1cc(Cl)c(C)cc1NC(=O)CSc1nnc(-c2ccccn2)n1Cc1ccco1,5.04%
13,CCOc1ccc(NC(=O)c2cc3c(C)nc4ccccc4c3o2)cc1,18.4%
14,COc1ccc(NC(=O)c2sc3nc(N4CCCC4)c4c(c3c2N)CC(C)(C)OC4)c(OC)c1,12.4%
15,N#Cc1ncc(-c2ccc3c(c2)OCCOCCOCCOCCO3)nc1C#N,-63.6%
16,CCC(C)(C)n1nnnc1C(c1cccnc1)N1CCCc2ccccc21 (stereo not drawn),8.46%
17,COC(=O)c1cn(C(=O)c2ccc(Br)o2)c2ccccc12,7.21%
18,Cc1ccc[n+](CC(=O)Nc2ccc(Cl)c([N+](=O)[O-])c2)c1.[Cl-],10.3%
19,COc1ccc(-c2onc(C)c2-c2ccccc2)c(O)c1,20.3%
20,Cc1ccc(S(=O)(=O)N2CCOCC2)cc1NC(=O)CSc1nnc2cc(C)c3ccccc3n12,-44.2%
21,CN(CC(=O)NCCN1CCOCC1)S(=O)(=O)c1ccc(F)cc1,8.74%
